Experimental data taken from paper PMC9574860, “Chemical Toolkit for PARK7: Potent, Selective, and High-Throughput” (Journal of Medicinal Chemistry, 2022).
In all, about 7,900 compounds went through this assay and about 400 (5.1%) showed an effect of 50% or more. This is one part of the list.

Each compound was assayed against Parkinson's disease protein 7 (PARK7/DJ1) (human, UniProt Q99497) (assay: primary screen, percent inhibition; read as competition with a fluorescent probe by fluorescence polarization; higher = more effect of the substance). Settings: 100 µM.
Procedure, shortened: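 Fluorescence-polarization probe displacement (JYQ-107, 20 nM final, 2 h) after 2 h preincubation of PARK7 (0.2 μM final) with each fragment at 100 μM final. Read-out ex/em 480/520 nm; remaining activity derived from FP signal loss relative to reference controls.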

Chain of Parkinson's disease protein 7 (PARK7/DJ1) (Q99497 whole entry, looked up, the tested form may be a part): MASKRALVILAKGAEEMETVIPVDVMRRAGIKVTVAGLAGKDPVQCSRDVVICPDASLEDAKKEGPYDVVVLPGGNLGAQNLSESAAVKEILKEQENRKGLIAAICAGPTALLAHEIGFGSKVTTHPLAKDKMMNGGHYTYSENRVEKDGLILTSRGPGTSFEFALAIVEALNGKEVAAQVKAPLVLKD

SMILES	Inhibition % [%]
C=CC(=O)N1CC(Cc2ccccc2)C1	4.5
O=C1CCC(=O)N1Cc1cccc(SC(F)(F)F)c1	2.67
CC1(C)OB(c2ccc(OC(F)F)c(F)c2)OC1(C)C	2.66
CN(CC1CC1)C(=O)CCl	50.3
COc1cccc(Cn2ccnc2C#N)c1	4.18
N#Cc1nc(NCCCN2CCCCC2=O)ccc1Cl	5.54
CC(C)NC(=O)C(C#N)=Cc1ccc(C(=O)O)n1C	20.9
N#Cc1cnc(OCC(F)F)cn1	6.83
CS(=O)(=O)C(C#N)=Cc1ccc(F)cc1	6.88
C=CC(=O)NCC1C(C)(C)C1(C)C	4.08
C=CC(=O)Nc1snc2ccccc12	11
CC(C)Cn1c(S)nc2ncccc2c1=O	6.75
C=CC(=O)N(Cc1ccccc1)C1COC(C)(C)C1 (centres unmarked)	11.7
COc1ccc(-c2cc(C#N)c(S)nc2C)cc1	2.42
O=C(CCl)NCc1ccccc1OC(F)(F)F	21.2
C=CC(=O)N1CCCC2(CC=CCC2)C1 (centres unmarked)	4.98
C=CC(=O)NNC(=O)c1ccccc1	-1.66
C=CC(=O)N(CCO)c1ccc(C(=O)O)cc1	-1.36
CC1CCC(C)N(C(=O)c2ccc(B(O)O)cc2)C1 (centres unmarked)	25.2
C=CC(=O)Nc1cnc(C)nc1	9.56
Cc1cc(B2OC(C)(C)C(C)(C)O2)ccc1N	8.63
Cc1ccc(NC(=O)Cn2cnnc2C#N)cc1F	28.9
Cc1cc(C=C(C#N)C(N)=O)c(C)n1C1CC1	2.13
O=C(CCl)C1CCOCC1	99
C=CC(=O)NCC1CCCC(C(F)(F)F)C1 (centres unmarked)	8.81
CN1CCC(N(C)C(=O)C(C#N)=Cc2ccccc2)CC1.Cl	15.3
C=CC(=O)N1CCC(Cc2nc(C)cs2)C1 (centres unmarked)	4.38

SMILES	Inhibition % [%]
CCc1ncc(NC(=O)c2cccnc2S)cn1	5.89
O=c1oc(-c2ccc(F)cc2)nn1Cc1cccnc1	16
CC1N=C(S)N(Cc2ccccc2)C1=O (centres unmarked)	2.79
O=C(CCl)NNC(=O)CC1CCS(=O)(=O)C1 (centres unmarked)	-1.57
N#Cc1ccc(OC(=O)N2CCOCC2)cc1	6.29
C=CC(=O)N(C)CCn1c(=O)oc2ccccc21	16.4
C[C@@H](CO)NS(=O)(=O)C=Cc1ccccc1	8.92
C=CC(=O)N1CC[C@@H]2OCC[C@@H]2C1 (racemic)	14.8
CC(C)Cn1cnc(C#N)n1	5.66
C=CC(=O)NC1CCN(c2cccc(C)n2)CC1	7.9
N#Cc1ccc(OC(=O)N2CCCCC2)cc1	9.24
Cc1ccc(Oc2ccccc2NC(=O)CCl)cc1	2.56
O=C1NC(C2CC2)C12CCCO2 (centres unmarked)	-1.99
O=C1CN(C(=O)CCl)CCN1	62.6
Cc1csc(C(C#N)=Cc2cccc(O)c2)n1	16.2
CN(Cc1cnn(C)c1)C(=O)CCl.Cl	20.6
C=CC(=O)N1CC(c2ccccc2)C2COCCC21 (centres unmarked)	9.83
CCc1cc(S(=O)(=O)n2ccc(C)n2)ccc1OC	1.65
O=C(CCCl)Nc1ccc2c(c1)OCCO2	7.65
Cc1ccc(F)c(N(C#N)CCN2C(=O)CCC2=O)c1	7.05
C=CS(=O)(=O)N1CCN(C(=O)OCc2ccccc2)CC1	3.15
Cc1cn2c(C=C(C#N)c3ccccn3)c(C)nc2s1	13.6
C=CC(=O)Nc1nc(COC)cs1	8.35
Cc1cc(NC(=O)CCl)n(C)n1	24.5
C=CC(=O)NC1COc2cc(F)ccc2C1 (centres unmarked)	10.8
CCOc1ccc(C)cc1S(=O)(=O)n1ccnc1CC	0.782
CC1CCCC(C)N1C(=O)CCl (centres unmarked)	9.33

SMILES	Inhibition % [%]
CC(=O)NCc1ccc(C(=O)CCl)o1	92.2
CCOc1ccc(C=C(C#N)C(=O)O)cc1	0.974
COc1cc(C)c(C(C)C)cc1S(=O)(=O)n1cccn1	4.05
Cl.NCCCC1CCOC1=O (centres unmarked)	6.3
CNS(=O)(=O)Nc1ccc(B2OC(C)(C)C(C)(C)O2)cc1	32.7
Cc1ccc(B2OC(C)(C)C(C)(C)O2)cc1Cl	0.734
CC1(C)OB(c2ccc(C3CC3)c(C#N)c2)OC1(C)C	7.98
C=CC(=O)NCc1c(C)c2ccccc2n1C	-1.86
C=CC(=O)N(C)Cc1c(C)nn(C)c1C	9.29
CC(=CB1OC(C)(C)C(C)(C)O1)c1ccnn1C	2.29
CC(C)c1nc(C(C)Nc2ccc(C#N)nc2)cs1 (centres unmarked)	3.63
N#CC(=Cc1ccccc1)c1nnc2n1CCCCC2	4.87
O=C1N(c2ccccc2)C(c2ccco2)C1(F)F (centres unmarked)	3.32
Nc1nc(CCCl)cs1	1.64
N#Cc1cccc(N2C[C@@H](F)C[C@H]2CO)n1	4.99
Cc1ccccc1CCNC(=O)CCl	8.29
C=CC(=O)N1CCCC(Cc2ccccc2)C1 (centres unmarked)	7.52
O=C(CCl)NCCc1cccs1	31.1
C=CC(=O)N1CCC(C2C(=O)Nc3ccccc32)CC1 (centres unmarked)	8.17
O=C(CCl)Nc1cc(-n2cnnn2)ccc1F	1
N#Cc1nc(N2CCC(CCO)C2)ccc1Cl (centres unmarked)	6.75
N#Cc1ncn(CCS(=O)c2cc(Cl)ccc2Cl)n1 (centres unmarked)	4.81
COC(=O)c1cccc(NC(=O)CCl)n1	4.72
O=C(c1cccs1)N1CCOC(CS(=O)(=O)F)C1 (centres unmarked)	14.7
CC1CC(Sc2ncn(-c3ccccc3)n2)C(=O)O1 (centres unmarked)	2.64
C=CC(=O)N1CCC(c2ccncn2)CC1	18.2
